Source: the supplement of paper PMC8728848
The other results are listed elsewhere or left out.

What was measured:
Assay in all cases: glycan array binding signal (z-score within array); higher = stronger binding
Settings in all cases: glycan notation: IUPAC condensed, linker removed
[1] = molecular target: Fuc(a1-2)Gal
Procedure, shortened: (§1)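 Arrays were curated from the Consortium for Functional Glycomics database, 3228 in total, and kept only where the protein sequence was available. Binding is expressed as a within-array Z-score. This score was averaged across arrays of the same protein sequence at different concentrations or buffers and across linkers, and negative values can be read as non-binding.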

[2] = molecular target: Fuc(a1-2)Gal(b1-3)GalNAc
Procedure, shortened: as §1

[3] = molecular target: Fuc(a1-2)Gal(b1-3)GalNAc(a1-3)[Fuc(a1-2)]Gal(b1-4)Glc
Procedure, shortened: as §1

[4] = molecular target: Fuc(a1-2)Gal(b1-3)GalNAc(a1-3)[Fuc(a1-2)]Gal(b1-4)GlcNAc
Procedure, shortened: as §1

[5] = molecular target: Fuc(a1-2)Gal(b1-3)GalNAc(b1-3)Gal
Procedure, shortened: as §1

[6] = molecular target: Fuc(a1-2)Gal(b1-3)GalNAc(b1-3)Gal(a1-4)Gal(b1-4)Glc
Procedure, shortened: as §1

[7] = molecular target: Fuc(a1-2)Gal(b1-3)GalNAc(b1-4)[Neu5Ac(a2-3)]Gal(b1-4)Glc
Procedure, shortened: as §1

[8] = molecular target: Fuc(a1-2)Gal(b1-3)GlcNAc
Procedure, shortened: as §1

[9] = molecular target: Fuc(a1-2)Gal(b1-3)GlcNAc(b1-2)Man(a1-3)[Fuc(a1-2)Gal(b1-3)GlcNAc(b1-2)Man(a1-6)]Man(b1-4)GlcNAc(b1-4)GlcNAc
Procedure, shortened: as §1

[10] = molecular target: Fuc(a1-2)Gal(b1-3)GlcNAc(b1-2)Man(a1-3)[Fuc(a1-2)Gal(b1-3)GlcNAc(b1-2)Man(a1-6)]Man(b1-4)GlcNAc(b1-4)[Fuc(a1-6)]GlcNAc
Procedure, shortened: as §1

[11] = molecular target: Fuc(a1-2)Gal(b1-3)GlcNAc(b1-3)Gal(b1-4)Glc
Procedure, shortened: as §1

[12] = molecular target: Fuc(a1-2)Gal(b1-3)GlcNAc(b1-3)GalNAc
Procedure, shortened: as §1

[13] = molecular target: Fuc(a1-2)Gal(b1-3)GlcNAc(b1-3)[Fuc(a1-2)Gal(b1-3)GlcNAc(b1-6)]GalNAc
Procedure, shortened: as §1

[14] = molecular target: Fuc(a1-2)Gal(b1-3)GlcNAc(b1-3)[Gal(b1-4)GlcNAc(b1-6)]Gal(b1-4)Glc
Procedure, shortened: as §1

[15] = molecular target: Fuc(a1-2)Gal(b1-3)GlcNAc(b1-3)[Neu5Ac(a2-6)Gal(b1-4)GlcNAc(b1-6)]Gal(b1-4)Glc
Procedure, shortened: as §1

[16] = molecular target: Fuc(a1-2)Gal(b1-3)GlcNAc6S
Procedure, shortened: as §1

[17] = molecular target: Fuc(a1-2)Gal(b1-3)[Fuc(a1-4)]GlcNAc
Procedure, shortened: as §1

[18] = molecular target: Fuc(a1-2)Gal(b1-3)[Fuc(a1-4)]GlcNAc(b1-2)Man(a1-3)[Fuc(a1-2)Gal(b1-3)[Fuc(a1-4)]GlcNAc(b1-2)Man(a1-3)]Man(b1-4)GlcNAc(b1-4)GlcNAc
Procedure, shortened: as §1

[19] = molecular target: Fuc(a1-2)Gal(b1-3)[Fuc(a1-4)]GlcNAc(b1-2)Man(a1-3)[Fuc(a1-2)Gal(b1-3)[Fuc(a1-4)]GlcNAc(b1-2)Man(a1-6)]Man(b1-4)GlcNAc(b1-4)[Fuc(a1-6)]GlcNAc(b1-4)[Fuc(a1-6)]GlcNAc
Procedure, shortened: as §1

[20] = molecular target: Fuc(a1-2)Gal(b1-3)[Fuc(a1-4)]GlcNAc(b1-3)[Fuc(a1-3)[Gal(b1-4)]GlcNAc(b1-6)]Gal(b1-4)Glc
Procedure, shortened: as §1

[21] = molecular target: Fuc(a1-2)Gal(b1-3)[Fuc(a1-4)]GlcNAc(b1-3)[Gal(b1-4)GlcNAc(b1-6)]Gal(b1-4)Glc
Procedure, shortened: as §1

[22] = molecular target: Fuc(a1-2)Gal(b1-4)Glc
Procedure, shortened: as §1

[23] = molecular target: Fuc(a1-2)Gal(b1-4)Glc6S
Procedure, shortened: as §1

[24] = molecular target: Fuc(a1-2)Gal(b1-4)GlcNAc
Procedure, shortened: as §1

[25] = molecular target: Fuc(a1-2)Gal(b1-4)GlcNAc(b1-2)Man
Procedure, shortened: as §1

[26] = molecular target: Fuc(a1-2)Gal(b1-4)GlcNAc(b1-2)Man(a1-3)[Fuc(a1-2)Gal(b1-4)GlcNAc(b1-2)Man(a1-6)]Man(b1-4)GlcNAc(b1-4)GlcNAc
Procedure, shortened: as §1

[27] = molecular target: Fuc(a1-2)Gal(b1-4)GlcNAc(b1-2)Man(a1-3)[Fuc(a1-2)Gal(b1-4)GlcNAc(b1-2)Man(a1-6)]Man(b1-4)GlcNAc(b1-4)[Fuc(a1-6)]GlcNAc
Procedure, shortened: as §1

[28] = molecular target: Fuc(a1-2)Gal(b1-4)GlcNAc(b1-2)[Fuc(a1-2)Gal(b1-4)GlcNAc(b1-4)]Man(a1-3)[Fuc(a1-2)Gal(b1-4)GlcNAc(b1-2)Man(a1-6)]Man(b1-4)GlcNAc(b1-4)GlcNAc
Procedure, shortened: as §1

[29] = molecular target: Fuc(a1-2)Gal(b1-4)GlcNAc(b1-3)Gal(b1-4)GlcNAc
Procedure, shortened: as §1

[30] = molecular target: Fuc(a1-2)Gal(b1-4)GlcNAc(b1-3)Gal(b1-4)GlcNAc(b1-2)Man(a1-3)[Fuc(a1-2)Gal(b1-4)GlcNAc(b1-3)Gal(b1-4)GlcNAc(b1-2)Man(a1-6)]Man(b1-4)GlcNAc(b1-4)GlcNAc
Procedure, shortened: as §1

B1: Pa IMPa (Pseudomonas aeruginosa), Q9I5W4 (protein)
chain: MSLSTTAFPSLQGENMSRSPIPRHRALLAGFCLAGALSAQAATQEEILDAALVSGDSSQLTDSHLVALRLQQQVERIRQTRTQLLDGLYQNLSQAYDPGAASMWVLPANPDNTLPFLIGDKGRVLASLSLEAGGRGLAYGTNVLTQLSGTNAAHAPLLKRAVQWLVNGDPGAATAKDFKVSVVGVDKTAALNGLKSAGLQPADAACNALTDASCASTSKLLVLGNGASAASLSATVRARLQAGLPILFVHTNGWNQSSTGQQILAGLGLQEGPYGGNYWDKDRVPSSRTRTRSVELGGAYGQDPALVQQIVDGSWRTDYDWSKCTSYVGRTTCDDVPGLSDFSKRVDVLKGALDAYNQKAQNLFALPGTTSLRLWLLWADAVRQNIRYPMDKAADTARFQETFVADAIVGYVREAGAAQKELGSYAGQRQQSMPVSGSEETLTLTLPSAQGFTAIGRMAAPGKRLSIRIEDAGQASLAVGLNTQRIGSTRLWNTRQYDRPRFLKSPDIKLQANQSVALVSPYGGLLQLVYSGATPGQTVTVKVTGAASQPFLDIQPGEDSSQAIADFIQALDADKADWLEIRSGSVEVHAKVEKVRGSIDKDYGGDVQRFIRELNEVFIDDAYTLAGFAIPNQAKTPAIQQECAARGWDCDSETLHKLPGTQHINVDQYAQCGGGCSGNPYDQTWGLNPRGWGESHELGHNLQVNRLKVYGGRSGEISNQIFPLHKDWRVLREFGQNLDDTRVNYRNAYNLIVAGRAEADPLAGVYKRLWEDPGTYALNGERMAFYTQWVHYWADLKNDPLQGWDIWTLLYLHQRQVDKSDWDANKAALGYGTYAQRPGNSGDASSTDGNDNLLLGLSWLTQRDQRPTFALWGIRTSAAAQAQVAAYGFAEQPAFFYANNRTNEYSTVKLLDMSQGSPAWPFP
For B1, the “glycan array binding signal (z-score)” value [1] was -0.235, the “glycan array binding signal (z-score)” value [2] was -0.198 and the “glycan array binding signal (z-score)” value [3] was -0.49. The “glycan array binding signal (z-score)” value [4] was -0.027, the “glycan array binding signal (z-score)” value [5] was 0.398 and the “glycan array binding signal (z-score)” value [6] was 0.225. For the same binder, the “glycan array binding signal (z-score)” value [7] was -0.354, the “glycan array binding signal (z-score)” value [8] was -0.318 and the “glycan array binding signal (z-score)” value [9] was -0.426. The “glycan array binding signal (z-score)” value [10] was 0.41, the “glycan array binding signal (z-score)” value [11] was 0.384 and the “glycan array binding signal (z-score)” value [12] was 0.19. For the same binder, the “glycan array binding signal (z-score)” value [13] was -0.057, the “glycan array binding signal (z-score)” value [14] was -0.248 and the “glycan array binding signal (z-score)” value [15] was 0.272. For the same binder, the “glycan array binding signal (z-score)” value [16] was -0.327, the “glycan array binding signal (z-score)” value [17] was -0.558 and the “glycan array binding signal (z-score)” value [18] was 0.633. The “glycan array binding signal (z-score)” value [19] was 0.203, the “glycan array binding signal (z-score)” value [20] was 0.631 and the “glycan array binding signal (z-score)” value [21] was -0.597. The “glycan array binding signal (z-score)” value [22] was 0.197, the “glycan array binding signal (z-score)” value [23] was -0.308 and the “glycan array binding signal (z-score)” value [24] was -0.264. For the same binder, the “glycan array binding signal (z-score)” value [25] was -0.136, the “glycan array binding signal (z-score)” value [26] was -0.12 and the “glycan array binding signal (z-score)” value [27] was -0.011. For the same binder, the “glycan array binding signal (z-score)” value [28] was -0.167, the “glycan array binding signal (z-score)” value [29] was -0.125 and the “glycan array binding signal (z-score)” value [30] was 0.167.
